From the supplement of paper PMC7125110
± gives the standard error. This sample is rich in variants without activity.

B1: glmS ribozyme (parent)
chain: AUAAAAGCGCCAGAACUACAGAAAUGUAGUUGACGAGGAGGAGGUUUAUCGAAUUUUCGGCGGAUGCCUCCAAA

Tests used:
Conditions in all cases: with glucosamine-6-phosphate
glucosamine-6-phosphate [1] = variants of: B1; assay: self-cleavage kobs at 640 uM GlcN6P; higher = faster cleavage; RNA array
Outline: (§1)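 kcat and KM were obtained from weighted Michaelis–Menten fits across concentrations of kobs values. Those came from one- or two-exponential decay fits to per-tile medians normalised to baseline and to non-cleaving reference variants. The variants were barcoded ribozymes transcribed in situ by E. coli RNA polymerase on sequenced MiSeq chips and tracked through a hybridised Cy3 probe at 37 °C, with 40 μM to 10 mM glucosamine-6-phosphate in HEPES/KCl/Mg(OAc)2 buffer flowed in.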

glucosamine-6-phosphate [2] = variants of: B1; assay: self-cleavage kobs at 2500 uM GlcN6P; higher = faster cleavage; RNA array
Outline: as §1

glucosamine-6-phosphate [3] = variants of: B1; assay: self-cleavage kobs at 160 uM GlcN6P; higher = faster cleavage; RNA array
Outline: as §1

glucosamine-6-phosphate [4] = variants of: B1; assay: self-cleavage kobs at 10000 uM GlcN6P; higher = faster cleavage; RNA array
Outline: as §1

| Variant | self-cleavage kobs at 640 uM GlcN6P (glucosamine-6-phosphate [1]) | self-cleavage kobs at 2500 uM GlcN6P (glucosamine-6-phosphate [2]) | self-cleavage kobs at 160 uM GlcN6P (glucosamine-6-phosphate [3]) | self-cleavage kobs at 10000 uM GlcN6P (glucosamine-6-phosphate [4]) |
| --- | --- | --- | --- | --- |
| G32C C34A U49C | < 1e-05 s⁻¹ | < 1e-05 s⁻¹ | – | – |
| G32C C34U A39U G66A | < 1e-05 s⁻¹ | < 1e-05 s⁻¹ | – | – |
| G32C C61G U65G | < 1e-05 s⁻¹ | < 1e-05 s⁻¹ | – | – |
| G32C G35U A64U U69A | < 1e-05 s⁻¹ | – | < 1e-05 s⁻¹ | – |
| G32C G37U G51C | < 1e-05 s⁻¹ | – | – | – |
| G32C G40U A42U | < 1e-05 s⁻¹ | – | – | – |
| G32C G40U G59C | < 1e-05 s⁻¹ | < 1e-05 s⁻¹ | – | – |
| G32C G40U U65G | < 1e-05 s⁻¹ | < 1e-05 s⁻¹ | < 1e-05 s⁻¹ | – |
| G32C G43C | < 1e-05 s⁻¹ | – | < 1e-05 s⁻¹ | – |
| G32C G44C A48C C67G | < 1e-05 s⁻¹ | < 1e-05 s⁻¹ | – | – |
| G32C G44U U56C U65C | < 1e-05 s⁻¹ | < 1e-05 s⁻¹ | – | < 1e-05 s⁻¹ |
| G32C G59U | < 1e-05 s⁻¹ | < 1e-05 s⁻¹ | < 1e-05 s⁻¹ | – |
| G32C G60A C70G | < 1e-05 s⁻¹ | – | – | – |
| G32C U49C G51U C58U | < 1e-05 s⁻¹ | – | < 1e-05 s⁻¹ | – |
| G32U A33G | < 1e-05 s⁻¹ | – | – | – |
| G32U A33G A36C G37U U49G | < 1e-05 s⁻¹ | – | – | – |
| G32U A36C G43A A48C C50U | < 1e-05 s⁻¹ | – | – | – |

| Variant | self-cleavage kobs at 640 uM GlcN6P (glucosamine-6-phosphate [1]) | self-cleavage kobs at 2500 uM GlcN6P (glucosamine-6-phosphate [2]) | self-cleavage kobs at 160 uM GlcN6P (glucosamine-6-phosphate [3]) | self-cleavage kobs at 10000 uM GlcN6P (glucosamine-6-phosphate [4]) |
| --- | --- | --- | --- | --- |
| G32U A36G U46A U55C | < 1e-05 s⁻¹ | – | – | – |
| G32U A36G U56C | < 1e-05 s⁻¹ | – | – | – |
| G32U A39C G41C A64U | < 1e-05 s⁻¹ | – | – | < 1e-05 s⁻¹ |
| G32U A39G C71U | 0.000114 ± 3.4e-05 s⁻¹ | 0.00038 ± 0.0001 s⁻¹ | – | – |
| G32U A39U G40C U45G U46G U57A A64U | < 1e-05 s⁻¹ | – | – | < 1e-05 s⁻¹ |
| G32U A42C G51C C67U | < 1e-05 s⁻¹ | – | – | – |
| G32U A42G G66U C68U | < 1e-05 s⁻¹ | – | – | – |
| G32U A52U C68U | < 1e-05 s⁻¹ | < 1e-05 s⁻¹ | – | – |
| G32U C34U C68U | < 1e-05 s⁻¹ | – | – | < 1e-05 s⁻¹ |
| G32U C61U G63A | < 1e-05 s⁻¹ | < 1e-05 s⁻¹ | – | – |
| G32U G35A G63A U65G C70U | < 1e-05 s⁻¹ | < 1e-05 s⁻¹ | < 1e-05 s⁻¹ | – |
| G32U G35A U46G U65C C68A | < 1e-05 s⁻¹ | – | < 1e-05 s⁻¹ | – |
| G32U G37A G59C | < 1e-05 s⁻¹ | – | – | – |
| G32U G37U G59U | < 1e-05 s⁻¹ | – | – | – |
| G32U G38C C68U | < 1e-05 s⁻¹ | – | – | – |
| G32U G41A C68A | < 1e-05 s⁻¹ | – | – | – |
